Our source for the z-score values is PubChem BioAssay AID488969 (Vanderbilt High Throughput Screening Facility, 2010).

Whole data set: some 110,000 compounds, median “z-score” near -0.1, cut for the highest 2% near 2. This is one part of the list. Calls of active or inactive are those of the source.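 Rule for the calls: active = z-score in the third read window above 3 or below -3; inactive = the rest.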

This test has as its target Metabotropic glutamate receptor 8 (Rattus norvegicus) (UniProt P70579). In words: rat mGluR8 modulators via GIRK flux, primary screen, cell-based, thallium flux, HTS (AID 488969). Particulars: HEK293 rat mGluR8, GIRK (G protein-gated inwardly rectifying potassium channel) thallium flux, FluoZin2; at 10 µM; stronger effect = higher value; submaximal glutamate (EC20) added with thallium.
UniProt P70579, sequence (P70579 whole entry, looked up): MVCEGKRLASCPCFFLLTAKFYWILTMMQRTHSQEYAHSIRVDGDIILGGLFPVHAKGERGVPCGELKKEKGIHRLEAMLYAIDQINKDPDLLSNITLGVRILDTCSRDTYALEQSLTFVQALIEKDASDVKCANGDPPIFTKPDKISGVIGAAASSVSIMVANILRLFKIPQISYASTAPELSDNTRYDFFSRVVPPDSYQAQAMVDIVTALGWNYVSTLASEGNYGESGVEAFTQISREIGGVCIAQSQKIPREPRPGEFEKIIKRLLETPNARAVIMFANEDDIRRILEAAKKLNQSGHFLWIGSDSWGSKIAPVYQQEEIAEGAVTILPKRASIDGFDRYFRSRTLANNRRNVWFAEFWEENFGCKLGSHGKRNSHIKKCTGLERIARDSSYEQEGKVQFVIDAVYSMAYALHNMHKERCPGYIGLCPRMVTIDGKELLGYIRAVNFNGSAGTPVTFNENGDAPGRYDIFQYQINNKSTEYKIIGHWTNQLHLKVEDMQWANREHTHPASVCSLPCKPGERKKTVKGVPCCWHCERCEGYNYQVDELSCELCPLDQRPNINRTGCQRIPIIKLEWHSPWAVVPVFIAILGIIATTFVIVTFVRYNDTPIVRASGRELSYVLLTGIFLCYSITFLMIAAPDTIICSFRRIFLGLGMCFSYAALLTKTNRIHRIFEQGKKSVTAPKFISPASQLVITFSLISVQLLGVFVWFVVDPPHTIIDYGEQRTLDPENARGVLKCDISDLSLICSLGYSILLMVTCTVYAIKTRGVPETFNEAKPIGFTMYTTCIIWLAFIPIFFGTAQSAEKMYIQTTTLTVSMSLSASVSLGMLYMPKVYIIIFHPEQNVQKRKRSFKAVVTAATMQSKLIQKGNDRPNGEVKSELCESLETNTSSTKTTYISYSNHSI
In turn, `O=C1CCCCCN1Cc1ccccc1` displayed a z-score of -0.141. Then `Cn1c(SCC(=O)Nc2cccc(O)c2)nnc1-c1ccc(S(=O)(=O)N2CCOCC2)cc1`, with 0.0673; and `CC(NC(=O)CSc1nnc(COc2ccccc2)o1)c1ccccc1` (stereo not given), with -0.301; and `O=C(NC1CCCC1)C1CCC(=O)N1CCc1ccccc1` (stereo not given), with -0.253. Next, `CC(C)OC(=O)CN1C(=O)C(=O)c2ccccc21`: 0.116. Then `CC(C)CC(=O)Nc1cccc(NC(=O)c2ccccc2Cl)c1`, with -0.137; and `COc1ccc(/C=C2\N=C(C)N(c3ccc(C(=O)O)cc3)C2=O)cc1OC`, with 0.284. As to `COC(=O)c1ccccc1NC(=O)c1cn(-c2ccc(C)c(C)c2)c(=O)c2ccccc12`, the z-score turned out to be 0.0214.

For the molecule `CC(C)=N/N=C(\c1cccc([N+](=O)[O-])c1)C12CN3CN(CN(C3)C1)C2`, the z-score is -0.114. Then `Cc1cc(C(=O)N=Nc2c(O)n(C(C)C)c3ccccc23)n[nH]1`, with 0.232; and `CC1Cn2c(CCc3ccccc3)nnc2S1` (stereo not given), with -0.107. Next, `CCCNC(=O)c1ccccc1C(=O)NCCC`: -0.0646; `CCc1cc2c(NCc3ccco3)ncnc2s1`: -0.444.

For the molecule `Cc1cc(C)c(C)c(S(=O)(=O)N2CCN(CC(=O)Nc3sccc3C#N)CC2)c1C`, the z-score was -0.19.

As for `O=C1c2cccc3c([N+](=O)[O-])ccc(c23)C(=O)N1c1ccc(Cl)cn1`, the z-score was -0.417. The molecule `CCCCn1c(CCNC(=O)CCC)nc2ccccc21` showed a z-score of -0.354. Then `COc1ccccc1C1CC(=O)n2c(nc(-c3ccccc3)c2-c2ccccc2)S1` (stereo not given), with 0.45; and `Fc1ccccc1NC(=S)NNc1ncc(C(F)(F)F)cc1Cl`, with 1.37; and `CNC(=O)N(O)C1N(NC(=O)Nc2cccc3ccccc23)C(=S)SC1(C)C` (stereo not given), with 0.145. Next, `CC(=O)Nc1cccc(Oc2nc(C)cc(C)c2C#N)c1`: -0.395. Next, `CCOC(=S)SCC(=O)N1CCc2ccccc2C1C1C(=O)CC(C)(C)CC1=O` (stereo not given): 0.0761; `Cc1cc(Nc2ccccc2)n(C(=O)c2ccccc2)n1`: -0.16.

Turning to `CC(Nc1ccc(Br)cn1)c1cc(Cl)ccc1O` (stereo not given), the z-score was active: -3.53. Then `O=C(c1cc2ccccc2o1)N1CCN=C1SCc1cccc(F)c1`, with -0.16; and `CCOC(=O)c1c(Nc2ccc(Cl)cc2)sc(/C=C2\C=Nc3ccccc32)c1O`, with -0.416. Next, `CCOC(=O)c1c(NC(=O)COC(=O)CCS(=O)(=O)c2ccc(C)cc2)sc(C)c1C`: -0.58; `Cn1c(=O)c2c(nc(CN3CCc4ccccc4C3)n2Cc2ccccc2F)n(C)c1=O`: -0.677; `O=C(Nc1ccc(CN2CCCCC2)cc1)c1ccc2c(c1)OCO2`: 0.288.

The molecule `Cn1cccc1-c1nc2ccc(NC(=O)c3ccco3)cc2[nH]1` returned a z-score of -1.74.

With `COc1ccc(NS(=O)(=O)c2ccc3oc(Nc4ccc5c(c4)OCCO5)nc3c2)cc1`, the z-score was -0.308.
